According to patent US10299477B2 (priority 2015, dated 2019):

What was measured:
Assay type in all cases: in vivo
Puccinia recondita = assay: Test Example E: Brown rust on wheat; conditions: for Test E control value (brown rust on wheat): preventive, control value class; for Test E (control value class, brown rust on wheat): in vivo
Excerpt: [Test Example E] Brown Rust on Wheat

Botrytis cinerea = assay: Test Example B: Gray mold on tomato; conditions: for Test B control value (gray mold on tomato): preventive, control value class; for Test B (control value class, gray mold on tomato): in vivo
Excerpt: [Test Example B] Gray Mold on Tomato
Seeds of a test plant (tomato variety: Oogata Fukuju) were planted followed by cultivating until three to five first leaves (true leaves) appeared.

[1] = tested on: Blumeria graminis f sp. hordei; assay: Test Example D: Powdery mildew on barley; conditions: for Test D control value (powdery mildew on barley): preventive, control value class; for Test D (control value class, powdery mildew on barley): in vivo
Excerpt: [Test Example D] Powdery Mildew on Barley
After the sprayed dilutions were dried, conidia of Blumeria graminis f sp. hordei were inoculated to the plants by shaking off.

Alternaia brassicicola = assay: Test Example C: Alternaria sooty spot on cabbage; conditions: for Test C control value (Alternaria sooty spot on cabbage): preventive, control value class; for Test C (control value class, Alternaria sooty spot on cabbage): in vivo
Excerpt: [Test Example C] Alternaria Sooty Spot on Cabbage
Seeds of a test plant (cabbage variety: Shikidori) were planted followed by cultivating until the cotyledons extended.

Plasmopara viticola = assay: Test Example G: Downy mildew on vine; conditions: for Test G control value (downy mildew on vine): 250 ppm spray (2.5 ml/pot), preventive, control value class; for Test G (control value class, downy mildew on vine): 250 ppm, sprayed 2.5 ml/pot before inoculation; for Test G (control value class): 250 ppm spray
Excerpt: [Test Example G] Downy Mildew on Vine
Seeds of a test plant (grape variety: Neomuscat) were planted followed by cultivating until three to four first leaves appeared. […] After the sprayed dilutions were dried, a zoosporangia suspension (1-2×10^4 zoosporangia/ml) of Plasmopara viticola was inoculated to the plants by spraying.

[2] = evaluated 7-10 days after inoculation
[3] = brown rust on wheat, Puccinia recondita, 250 ppm spray
[4] = gray mold on tomato, Botrytis cinerea, 250 ppm spray
[5] = powdery mildew on barley, 250 ppm spray
[6] = Alternaria sooty spot on cabbage, 250 ppm spray
[7] = downy mildew on vine, Plasmopara viticola, 7-10 days after inoculation

SMILES: CCn1c(-c2c(F)cccc2F)c(-c2cccc(C#N)c2)ccc1=O [Compound 341]
- Test E control value (brown rust on wheat) (Puccinia recondita; 250 ppm spray): L (L shows 50% or less of control values)
- Test B control value (gray mold on tomato) (Botrytis cinerea; 250 ppm spray): L (L shows 50% or less of control values)
- Test D control value (powdery mildew on barley) ([1]; 250 ppm spray): L (L shows 50% or less of control values)
- Test C control value (Alternaria sooty spot on cabbage) (Alternaia brassicicola; 250 ppm spray): L (L shows 50% or less of control values)
- Test G control value (downy mildew on vine) (Plasmopara viticola; 7-10 days after inoculation): L (L shows 50% or less of control values)

SMILES: CCn1c(-c2c(F)cccc2F)c(-c2cc(OCC(C)C)ccc2Cl)ccc1=O [Compound 258]
- Test E control value (brown rust on wheat) (Puccinia recondita; 250 ppm spray): L (L shows 50% or less of control values)
- Test B control value (gray mold on tomato) (Botrytis cinerea; 250 ppm spray): L (L shows 50% or less of control values)
- Test D control value (powdery mildew on barley) ([1]; 250 ppm spray): H (H shows more than 50% of control values)
- Test C control value (Alternaria sooty spot on cabbage) (Alternaia brassicicola; 250 ppm spray): H (H shows more than 50% of control values)
- Test G control value (downy mildew on vine) (Plasmopara viticola; 7-10 days after inoculation): H (H shows more than 50% of control values)

SMILES: CCn1c(-c2c(F)cc(F)cc2F)c(-c2ccccc2Cl)ccc1=O [Compound 715]
- Test E (control value class, brown rust on wheat) (Puccinia recondita): H (H shows more than 50% of control values)
- Test B (control value class, gray mold on tomato) (Botrytis cinerea): H (H shows more than 50% of control values)
- Test D (control value class, powdery mildew on barley) [1]: H (H shows more than 50% of control values)
- Test C (control value class, Alternaria sooty spot on cabbage) (Alternaia brassicicola): H (H shows more than 50% of control values)
- Test G (control value class, downy mildew on vine) (Plasmopara viticola; [2]): H (H shows more than 50% of control values)

SMILES: Cn1c(-c2c(F)cccc2F)c(-c2cc(OCOCC[Si](C)(C)C)ccc2Cl)ccc1=O [Compound 246]
- Test E control value (brown rust on wheat) (Puccinia recondita; 250 ppm spray): H (H shows more than 50% of control values)
- Test B control value (gray mold on tomato) (Botrytis cinerea; 250 ppm spray): H (H shows more than 50% of control values)
- Test D control value (powdery mildew on barley) ([1]; 250 ppm spray): H (H shows more than 50% of control values)
- Test C control value (Alternaria sooty spot on cabbage) (Alternaia brassicicola; 250 ppm spray): H (H shows more than 50% of control values)
- Test G control value (downy mildew on vine) (Plasmopara viticola; 7-10 days after inoculation): L (L shows 50% or less of control values)

SMILES: COc1cc(OC)c(Br)c(-c2ccc(=O)n(C)c2-c2c(F)cccc2Br)c1 [Compound 184]
- Test E control value (Puccinia recondita; Brown rust on wheat): H (H shows more than 50% of control values)
- Test B control value (Botrytis cinerea; Gray mold on tomato): H (H shows more than 50% of control values)
- Test D control value ([1]; Powdery mildew on barley): H (H shows more than 50% of control values)
- Test C control value (Alternaia brassicicola; Alternaria sooty spot on cabbage): H (H shows more than 50% of control values)
- Test G control value (Plasmopara viticola; Downy mildew on vine, 250 ppm sprayed before inoculation, 7-10 days after inoculation): H (H shows more than 50% of control values)

SMILES: CCn1c(-c2c(F)cc(F)cc2F)c(-c2cccc(F)c2F)cc(Cl)c1=O [Compound 566]
- Test E (control value class, brown rust on wheat) (Puccinia recondita): H (H shows more than 50% of control values)
- Test B (control value class, gray mold on tomato) (Botrytis cinerea): H (H shows more than 50% of control values)
- Test D (control value class, powdery mildew on barley) [1]: H (H shows more than 50% of control values)
- Test C (control value class, Alternaria sooty spot on cabbage) (Alternaia brassicicola): H (H shows more than 50% of control values)
- Test G (control value class, downy mildew on vine) (Plasmopara viticola; [2]): H (H shows more than 50% of control values)

SMILES: Cn1c(-c2c(F)cccc2F)c(-c2cc(F)ccc2Cl)cc(Cl)c1=O [Compound 362]
- Test E control value (brown rust on wheat) (Puccinia recondita; 250 ppm spray): H (H shows more than 50% of control values)
- Test B control value (gray mold on tomato) (Botrytis cinerea; 250 ppm spray): H (H shows more than 50% of control values)
- Test D control value (powdery mildew on barley) ([1]; 250 ppm spray): H (H shows more than 50% of control values)
- Test C control value (Alternaria sooty spot on cabbage) (Alternaia brassicicola; 250 ppm spray): H (H shows more than 50% of control values)
- Test G control value (downy mildew on vine) (Plasmopara viticola; 7-10 days after inoculation): H (H shows more than 50% of control values)

SMILES: CCn1c(-c2c(F)cc(OC)cc2F)c(-c2cccc(F)c2C)cc(Cl)c1=O [Compound 699]
- Test E (control value class, brown rust on wheat) (Puccinia recondita): H (H shows more than 50% of control values)
- Test B (control value class, gray mold on tomato) (Botrytis cinerea): H (H shows more than 50% of control values)
- Test D (control value class, powdery mildew on barley) [1]: H (H shows more than 50% of control values)
- Test C (control value class, Alternaria sooty spot on cabbage) (Alternaia brassicicola): H (H shows more than 50% of control values)
- Test G (control value class, downy mildew on vine) (Plasmopara viticola; [2]): L (L shows 50% or less of control values)

SMILES: COc1cc(F)c(-c2c(-c3cc(F)cc(F)c3F)cc(Cl)c(=O)n2C)c(F)c1 [Compound 549]
- Test E (control value class) (Puccinia recondita; [3]): H (H shows more than 50% of control values)
- Test B (control value class) (Botrytis cinerea; [4]): H (H shows more than 50% of control values)
- Test D (control value class) [1, 5]: H (H shows more than 50% of control values)
- Test C (control value class) (Alternaia brassicicola; [6]): H (H shows more than 50% of control values)
- Test G (control value class) (Plasmopara viticola; [7]): L (L shows 50% or less of control values)

SMILES: CCn1c(-c2c(F)cc(F)cc2F)c(-c2cc(OC)cc(F)c2Cl)cc(Cl)c1=O [Compound 617]
- Test E (control value class, brown rust on wheat) (Puccinia recondita): H (H shows more than 50% of control values)
- Test B (control value class, gray mold on tomato) (Botrytis cinerea): H (H shows more than 50% of control values)
- Test D (control value class, powdery mildew on barley) [1]: H (H shows more than 50% of control values)
- Test C (control value class, Alternaria sooty spot on cabbage) (Alternaia brassicicola): H (H shows more than 50% of control values)
- Test G (control value class, downy mildew on vine) (Plasmopara viticola; [2]): L (L shows 50% or less of control values)

SMILES: CCn1c(-c2c(F)cccc2F)c(-c2cc(F)cc(F)c2F)cc(Br)c1=O [Compound 441]
- Test E (control value class) (Puccinia recondita; [3]): H (H shows more than 50% of control values)
- Test B (control value class) (Botrytis cinerea; [4]): H (H shows more than 50% of control values)
- Test D (control value class) [1, 5]: H (H shows more than 50% of control values)
- Test C (control value class) (Alternaia brassicicola; [6]): H (H shows more than 50% of control values)
- Test G (control value class) (Plasmopara viticola; [7]): L (L shows 50% or less of control values)

SMILES: COc1cc(OC)c(Cl)c(-c2ccc(=O)n(C)c2-c2ccccc2F)c1Cl [Compound 233]
- Test E control value (brown rust on wheat) (Puccinia recondita; 250 ppm spray): H (H shows more than 50% of control values)
- Test B control value (gray mold on tomato) (Botrytis cinerea; 250 ppm spray): H (H shows more than 50% of control values)
- Test D control value (powdery mildew on barley) ([1]; 250 ppm spray): H (H shows more than 50% of control values)
- Test C control value (Alternaria sooty spot on cabbage) (Alternaia brassicicola; 250 ppm spray): L (L shows 50% or less of control values)
- Test G control value (downy mildew on vine) (Plasmopara viticola; 7-10 days after inoculation): H (H shows more than 50% of control values)

SMILES: Cn1c(-c2c(F)cccc2F)c(-c2cccc(Cl)c2Cl)ccc1=O [Compound 364]
- Test E control value (brown rust on wheat) (Puccinia recondita; 250 ppm spray): H (H shows more than 50% of control values)
- Test B control value (gray mold on tomato) (Botrytis cinerea; 250 ppm spray): H (H shows more than 50% of control values)
- Test D control value (powdery mildew on barley) ([1]; 250 ppm spray): H (H shows more than 50% of control values)
- Test C control value (Alternaria sooty spot on cabbage) (Alternaia brassicicola; 250 ppm spray): H (H shows more than 50% of control values)
- Test G control value (downy mildew on vine) (Plasmopara viticola; 7-10 days after inoculation): L (L shows 50% or less of control values)

SMILES: COc1ccc(-c2ccc(=O)n(C)c2-c2c(F)cc(F)cc2F)c(Cl)c1 [Compound 756]
- Test E (control value class) (Puccinia recondita; Brown rust on wheat, control value=100{1-(n/3)}): H (H shows more than 50% of control values)
- Test B (control value class) (Botrytis cinerea; Gray mold on tomato, control value=100{1-(n/3)}): H (H shows more than 50% of control values)
- Test D (control value class) ([1]; Powdery mildew on barley, control value=100{1-(n/3)}): H (H shows more than 50% of control values)
- Test C (control value class) (Alternaia brassicicola; Alternaria sooty spot on cabbage, control value=100{1-(n/3)}): H (H shows more than 50% of control values)
- Test G (control value class) (Plasmopara viticola; Downy mildew on vine, 2.5 ml/pot, evaluated 7-10 days after inoculation): H (H shows more than 50% of control values)

SMILES: Cn1c(-c2c(F)cccc2F)c(-c2cc(F)ccc2F)cc(Cl)c1=O [Compound 484]
- Test E (control value class) (Puccinia recondita; [3]): H (H shows more than 50% of control values)
- Test B (control value class) (Botrytis cinerea; [4]): H (H shows more than 50% of control values)
- Test D (control value class) [1, 5]: H (H shows more than 50% of control values)
- Test C (control value class) (Alternaia brassicicola; [6]): H (H shows more than 50% of control values)
- Test G (control value class) (Plasmopara viticola; [7]): H (H shows more than 50% of control values)

SMILES: CCn1c(-c2c(F)cccc2F)c(-c2cc(OC)ccc2Cl)cc(C2CC2)c1=O [Compound 352]
- Test E control value (brown rust on wheat) (Puccinia recondita; 250 ppm spray): L (L shows 50% or less of control values)
- Test B control value (gray mold on tomato) (Botrytis cinerea; 250 ppm spray): H (H shows more than 50% of control values)
- Test D control value (powdery mildew on barley) ([1]; 250 ppm spray): L (L shows 50% or less of control values)
- Test C control value (Alternaria sooty spot on cabbage) (Alternaia brassicicola; 250 ppm spray): H (H shows more than 50% of control values)
- Test G control value (downy mildew on vine) (Plasmopara viticola; 7-10 days after inoculation): L (L shows 50% or less of control values)

SMILES: Cc1cc(F)c(-c2c(-c3cc(F)ccc3Cl)cc(Cl)c(=O)n2C)c(F)c1 [Compound 691]
- Test E (control value class, brown rust on wheat) (Puccinia recondita): H (H shows more than 50% of control values)
- Test B (control value class, gray mold on tomato) (Botrytis cinerea): H (H shows more than 50% of control values)
- Test D (control value class, powdery mildew on barley) [1]: H (H shows more than 50% of control values)
- Test C (control value class, Alternaria sooty spot on cabbage) (Alternaia brassicicola): H (H shows more than 50% of control values)
- Test G (control value class, downy mildew on vine) (Plasmopara viticola; [2]): H (H shows more than 50% of control values)

SMILES: COc1cc(OC)c(Cl)c(-c2ccc(=O)n(CC(F)(F)F)c2-c2c(F)cc(F)cc2F)c1 [Compound 377]
- Test E (control value class) (Puccinia recondita; [3]): H (H shows more than 50% of control values)
- Test B (control value class) (Botrytis cinerea; [4]): H (H shows more than 50% of control values)
- Test D (control value class) [1, 5]: H (H shows more than 50% of control values)
- Test C (control value class) (Alternaia brassicicola; [6]): H (H shows more than 50% of control values)
- Test G (control value class) (Plasmopara viticola; [7]): H (H shows more than 50% of control values)
